Results from a collection of fitness landscapes (doi:10.1126/science.1257360).
The list shows a part of the results.

B1: PhoQ; a variant is named by its letters at X, in order, P23837 (parent)
chain: MKKLLRLFFPLSLRVRFLLATAAVVLVLSLAYGMVALIGYSVSFDKTTFRLLRGESNLFYTLAKWENNKLHVELPENIDKQSPTMTLIYDENGQLLWAQRDVPWLMKMIQPDWLKSNGFHEIEADVNDTSLLLSGDHSIQQQLQEVREDDDDAEMTHSVAVNVYPATSRMPKLTIVVVDTIPVELKSSYMVWSWFIYVLSANLLLVIPLLWVAAWWSLRPIEALAKEVRELEEHNRELLNPATTRELTSLVRNLNRLLKSERERYDKYRTTLTDLTHSLKTPLXXLQXXLRSLRSEKMSVSDAEPVMLEQISRISQQIGYYLHRASMRGGTLLSRELHPVAPLLDNLTSALNKVYQRKGVNISLDISPEISFVGEQNDFVEVMGNVLDNACKYCLEFVEISARQTDEHLYIVVEDDGPGIPLSKREVIFDRGQRVDTLRPGQGVGLAVAREITEQYEGKIVAGESMLGGARMEVIFGRQHSAPKDE

Variants of: B1
Assay: enrichment ratio after two sorts for PhoP signalling (ratio (wild type AVST 3.29)); higher = more functional
Conditions: with PhoP (E. coli)

Variant | enrichment ratio
NNQM | 30
SCGR | ≤ 0.25
IACQ | ≤ 0.25
QSTD | ≤ 0.25
RQWD | ≤ 0.25
ERKP | ≤ 0.25
MEKN | ≤ 0.25
DVVW | ≤ 0.25
HGLT | 0.419
LVDR | ≤ 0.25
HWSV | ≤ 0.25
PRDM | ≤ 0.25
FSWE | ≤ 0.25
PVTG | ≤ 0.25
ETLK | ≤ 0.25
YFVG | ≤ 0.25
DRFL | ≤ 0.25
SKTA | 0.276
QCTP | ≤ 0.25
PVNF | ≤ 0.25
VTKE | ≤ 0.25
YKIL | ≤ 0.25
MGVH | 3.55
YRYP | ≤ 0.25

Variant | enrichment ratio
QCRH | ≤ 0.25
YYYF | ≤ 0.25
TDPF | ≤ 0.25
YTPL | ≤ 0.25
DVCL | ≤ 0.25
NMVH | ≤ 0.25
QIVW | ≤ 0.25
IYKV | 1.02
GQLA | ≤ 0.25
AWWC | ≤ 0.25
SKSP | ≤ 0.25
FPDN | ≤ 0.25
QEGA | ≤ 0.25
NSVQ | ≤ 0.25
NIKY | ≤ 0.25
GYSY | ≤ 0.25
TWTK | ≤ 0.25
HIHF | ≤ 0.25
ISNI | ≤ 0.25
YLAK | ≤ 0.25
VMYG | ≤ 0.25
NHNA | ≤ 0.25
YHQQ | ≤ 0.25
EEIC | ≤ 0.25

Variant | enrichment ratio
DDTA | ≤ 0.25
KQVT | ≤ 0.25
LPRN | ≤ 0.25
QGRH | ≤ 0.25
DDCQ | ≤ 0.25
HISS | ≤ 0.25
KSRN | ≤ 0.25
GMCK | ≤ 0.25
LLDK | ≤ 0.25
DPAS | ≤ 0.25
DDQF | ≤ 0.25
LSIE | ≤ 0.25
KKCS | ≤ 0.25
VGAR | ≤ 0.25
PRDV | ≤ 0.25
DVEA | ≤ 0.25
YSIY | ≤ 0.25
GHSL | ≤ 0.25
PHFQ | ≤ 0.25
SHMK | ≤ 0.25
ARWT | ≤ 0.25
HITA | ≤ 0.25
QVWW | 2.54
PDDY | ≤ 0.25

Variant | enrichment ratio
ASRP | ≤ 0.25
HDQM | ≤ 0.25
EDPD | ≤ 0.25
ILIG | ≤ 0.25
NQDL | ≤ 0.25
WDFH | ≤ 0.25
WILA | ≤ 0.25
WTCK | ≤ 0.25
YRIL | ≤ 0.25
PYIK | ≤ 0.25
DAND | ≤ 0.25
DSAD | ≤ 0.25
YAPS | 0.949
DTPE | ≤ 0.25
ITIY | ≤ 0.25
YYSS | ≤ 0.25
TYWY | ≤ 0.25
RCCK | 2.03
LCAF | ≤ 0.25
IWKC | ≤ 0.25
DGMG | ≤ 0.25
LCGW | ≤ 0.25
HMAN | ≤ 0.25
EMAA | ≤ 0.25

Variant | enrichment ratio
PCGY | ≤ 0.25
PEIP | ≤ 0.25
MNKG | ≤ 0.25
VICA | ≤ 0.25
YNHC | ≤ 0.25
LWKC | ≤ 0.25
VIYC | ≤ 0.25
AWEY | ≤ 0.25
PIQE | ≤ 0.25
RTSS | ≤ 0.25
KYTP | ≤ 0.25
WGGD | ≤ 0.25
FWLL | ≤ 0.25
VDYN | ≤ 0.25
MFNV | ≤ 0.25
KTLE | ≤ 0.25
EKVL | ≤ 0.25
LWPF | ≤ 0.25
FYQT | ≤ 0.25
ICMW | ≤ 0.25
AWMC | ≤ 0.25
LGLD | ≤ 0.25
GFDH | ≤ 0.25
LNGC | ≤ 0.25

Variant | enrichment ratio
SWDP | ≤ 0.25
APPA | ≤ 0.25
SRLH | ≤ 0.25
EMAF | ≤ 0.25
KCSI | ≤ 0.25
EFST | ≤ 0.25
YAQL | ≤ 0.25
DCKF | ≤ 0.25
TMYL | ≤ 0.25
FMGA | ≤ 0.25
SSVI | 10.3
GWKF | ≤ 0.25
NNDP | ≤ 0.25
DDRN | ≤ 0.25
AMHS | ≤ 0.25
VEVG | ≤ 0.25
PWTL | ≤ 0.25
FHAA | ≤ 0.25
MRLR | ≤ 0.25
LKNG | ≤ 0.25
KHVP | ≤ 0.25
NFYW | ≤ 0.25
RTWL | ≤ 0.25
SWQN | ≤ 0.25

Variant | enrichment ratio
PYYQ | ≤ 0.25
DYQR | ≤ 0.25
LMHK | ≤ 0.25
EFLY | ≤ 0.25
RCLC | ≤ 0.25
RTET | ≤ 0.25
FYPL | ≤ 0.25
EPRS | ≤ 0.25
GCAP | ≤ 0.25
FDLC | ≤ 0.25
MTIF | ≤ 0.25
VFTW | ≤ 0.25
VEIP | ≤ 0.25
PMAQ | ≤ 0.25
DIEG | ≤ 0.25
FHVP | ≤ 0.25
LSWV | 1.23
WLLI | ≤ 0.25
VSWK | ≤ 0.25
IVGI | ≤ 0.25
VWCT | ≤ 0.25
GDCA | ≤ 0.25
QASI | 12.8
HPGP | ≤ 0.25

Variant | enrichment ratio
MQDQ | ≤ 0.25
AVSI | 13.1
VSMY | ≤ 0.25
TYHH | ≤ 0.25
HYSM | ≤ 0.25
LTRN | ≤ 0.25
NACW | ≤ 0.25
QRSA | ≤ 0.25
STFE | ≤ 0.25
ASGN | 4.65
PHPS | ≤ 0.25
KDDN | ≤ 0.25
IKHH | ≤ 0.25
TEGP | ≤ 0.25
LKAA | ≤ 0.25
LRMC | ≤ 0.25
MCPY | ≤ 0.25
SEKS | ≤ 0.25
DHER | ≤ 0.25
VRRG | ≤ 0.25
WGYV | ≤ 0.25
TTTS | 14.1
FFQH | ≤ 0.25
WRWM | ≤ 0.25

Variant | enrichment ratio
DWFM | ≤ 0.25
VRRV | ≤ 0.25
LNTY | ≤ 0.25
NMRW | ≤ 0.25
FGCF | ≤ 0.25
DYLI | ≤ 0.25
YAYK | ≤ 0.25
LYQD | ≤ 0.25
HPSY | ≤ 0.25
KGWD | ≤ 0.25
PQKT | ≤ 0.25
VTLE | 3.68
NKMH | ≤ 0.25
WRQH | ≤ 0.25
RHSK | ≤ 0.25
CQSH | ≤ 0.25
RNPK | ≤ 0.25
GTLP | ≤ 0.25
IGEW | ≤ 0.25
DSRP | ≤ 0.25
PAFN | ≤ 0.25
VARD | ≤ 0.25
TIWS | 15.7
HIHQ | ≤ 0.25

Variant | enrichment ratio
EHFQ | ≤ 0.25
MGIA | ≤ 0.25
YFQR | ≤ 0.25
PNHY | ≤ 0.25
AVFL | ≤ 0.25
YWSD | ≤ 0.25
ISIG | ≤ 0.25
NYRP | ≤ 0.25
RTRR | ≤ 0.25
TDYL | ≤ 0.25
DGAT | ≤ 0.25
THKA | ≤ 0.25
LVDN | ≤ 0.25
QEWP | ≤ 0.25
ALFT | ≤ 0.25
RDGK | ≤ 0.25
HDTD | ≤ 0.25
YDSC | ≤ 0.25
ACVI | 4.3
LRES | ≤ 0.25
EFQL | ≤ 0.25
GEFI | ≤ 0.25
QCCH | ≤ 0.25
MSDG | ≤ 0.25

Variant | enrichment ratio
HRAA | ≤ 0.25
YLRK | ≤ 0.25
LNSV | ≤ 0.25
HWYP | ≤ 0.25
FFVV | ≤ 0.25
MHDH | ≤ 0.25
KPYL | ≤ 0.25
HPSC | ≤ 0.25
PNLG | ≤ 0.25
WRCP | ≤ 0.25
MNEC | ≤ 0.25
GNKS | ≤ 0.25
CSAV | ≤ 0.25
RCMN | ≤ 0.25
PADN | ≤ 0.25
QKPL | ≤ 0.25
KWAT | ≤ 0.25
QFVK | ≤ 0.25
QICQ | ≤ 0.25
IDET | ≤ 0.25
KNAT | ≤ 0.25
RAHQ | ≤ 0.25
WGRA | ≤ 0.25
DVQF | ≤ 0.25

Variant | enrichment ratio
DAYK | ≤ 0.25
PDTT | ≤ 0.25
SFCS | ≤ 0.25
HTKY | ≤ 0.25
TAPM | ≤ 0.25
PKIF | ≤ 0.25
QIMM | ≤ 0.25
DEDQ | ≤ 0.25
IEHG | ≤ 0.25
FWWR | ≤ 0.25
LPKH | ≤ 0.25
LAMF | ≤ 0.25
QPIE | ≤ 0.25
KKHR | ≤ 0.25
MPTQ | ≤ 0.25
FCMK | ≤ 0.25
RPAV | ≤ 0.25
MVCA | ≤ 0.25
VMKW | ≤ 0.25
FVAI | ≤ 0.25
QGAS | 0.936
FIPK | 0.294
NATF | ≤ 0.25
PLCM | ≤ 0.25

Variant | enrichment ratio
NIMI | ≤ 0.25
SHNH | 1.34
AVCS | 8.99
PRPA | ≤ 0.25
QQYR | ≤ 0.25
DCQR | ≤ 0.25
FCAN | ≤ 0.25
ECVY | ≤ 0.25
EVAP | ≤ 0.25
MNGW | ≤ 0.25
DQCE | ≤ 0.25
RYHI | ≤ 0.25
VAFI | 0.629
NIIC | ≤ 0.25
SIYV | ≤ 0.25
DNAW | ≤ 0.25
GSPK | ≤ 0.25
IEEW | ≤ 0.25
